Measured values taken from article PMC4336329 (PLoS ONE, 2015).
About 2,200 (0.71%) of roughly 310,000 compounds showed an effect of 50% or more. The effect is printed as a negative number. The list shows a part of the results.

These compounds were tested against human ether-à-go-go-related gene (hERG) potassium channel (human, UniProt Q12809) (assay: primary screen, population patch clamp on CHO cells stably expressing hERG).
Chain of human ether-à-go-go-related gene (hERG) potassium channel (Q12809 whole entry, looked up): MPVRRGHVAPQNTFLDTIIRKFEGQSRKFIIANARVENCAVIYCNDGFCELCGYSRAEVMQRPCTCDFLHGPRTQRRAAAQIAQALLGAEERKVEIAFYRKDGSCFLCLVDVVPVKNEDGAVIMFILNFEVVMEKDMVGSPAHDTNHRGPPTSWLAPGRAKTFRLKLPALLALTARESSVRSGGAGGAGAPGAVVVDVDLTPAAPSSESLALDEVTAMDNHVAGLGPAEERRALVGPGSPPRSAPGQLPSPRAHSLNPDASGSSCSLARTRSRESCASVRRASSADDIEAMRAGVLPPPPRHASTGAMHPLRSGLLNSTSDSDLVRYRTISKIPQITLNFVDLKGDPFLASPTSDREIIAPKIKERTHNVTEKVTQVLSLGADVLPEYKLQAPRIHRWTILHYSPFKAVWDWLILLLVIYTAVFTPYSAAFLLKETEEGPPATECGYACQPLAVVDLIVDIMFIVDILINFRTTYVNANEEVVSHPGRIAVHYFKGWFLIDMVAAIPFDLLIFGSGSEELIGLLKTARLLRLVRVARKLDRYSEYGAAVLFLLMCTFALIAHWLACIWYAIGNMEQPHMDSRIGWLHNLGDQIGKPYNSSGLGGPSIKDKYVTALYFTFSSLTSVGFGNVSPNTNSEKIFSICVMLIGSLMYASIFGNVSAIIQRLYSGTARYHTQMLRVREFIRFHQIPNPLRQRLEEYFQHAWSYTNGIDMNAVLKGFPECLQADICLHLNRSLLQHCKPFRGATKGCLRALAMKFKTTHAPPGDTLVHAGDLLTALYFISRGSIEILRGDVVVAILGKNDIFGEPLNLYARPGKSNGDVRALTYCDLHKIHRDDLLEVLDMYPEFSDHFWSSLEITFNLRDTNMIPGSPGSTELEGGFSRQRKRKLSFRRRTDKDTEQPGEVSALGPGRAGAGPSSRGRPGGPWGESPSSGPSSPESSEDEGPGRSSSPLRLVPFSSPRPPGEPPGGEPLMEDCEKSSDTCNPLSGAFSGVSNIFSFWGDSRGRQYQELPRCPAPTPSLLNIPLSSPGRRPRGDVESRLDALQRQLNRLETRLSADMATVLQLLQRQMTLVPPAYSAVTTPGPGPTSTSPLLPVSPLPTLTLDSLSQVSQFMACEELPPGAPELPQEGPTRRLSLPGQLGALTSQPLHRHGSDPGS

Point of comparison: CC(C)CCn1c(N2CCCC2)nc2c1c(=O)n(C)c(=O)n2C, “hERG current change (%, negative = inhibition) at 1uM” value 15.5%. Against it:
- O=C1N=c2ccccc2=C1c1sc(Nc2cccc(O)c2)nc1O — lower, 12%
- CC(C)C1=C2OC(N)=C(C#N)C(C#N)=C2C(C)CC1 (stereo not shown) — lower, 6.75%
- O=C(c1cc(-c2ccc(F)cc2)no1)N1CCN(Cc2ccc3c(c2)OCO3)CC1 — lower, -7.43%
- Cc1cc(C)c2c(N)c(C(=O)Nc3ccccc3Br)sc2n1 — higher, 19.4%
- O=C(Cc1ccccc1)NC(NC(=O)Cc1ccccc1)c1cccc([N+](=O)[O-])c1 — lower, 5.29%
- C(=N\n1cnnc1)/c1ccc(OC2CSC2)cc1 — lower, 2.24%
- Cc1cc(Nc2cccc(Cl)n2)n(-c2ccccc2)n1 — lower, 7.99%
- CCOc1ccc(NC(=S)Nc2ccc(OC)cc2)cc1 — higher, 18.4%
- CC(=O)c1cccc(NC(=O)CSc2ccc(-c3ccc4c(c3)OCO4)nn2)c1 — lower, 5.16%
- Cc1ccc(S(=O)(=O)N(C)Cc2ccc(C(=O)N/N=C/c3ccc(OC(F)F)cc3)cc2)cc1 — lower, 11.4%
- O=C(Nc1ccc(F)cc1F)c1cccnc1 — lower, 12.3%
- Cc1ccc(OCC(=O)N2CCN(C(=O)c3cccc(F)c3)CC2)cc1 — lower, 0.583%
- NS(=O)(=O)c1ccc(CCNC(=O)CNCCc2ccc(C(F)(F)F)cc2)cc1.O=C(O)C(=O)O — lower, 4%
- CC1CCCN(c2ccc(/C=C(\C#N)c3nn(-c4ccccc4)c(N)c3C#N)cc2[N+](=O)[O-])C1 (stereo not shown) — lower, 11.1%
- CC(=O)OCCN1C(=O)c2cccc3cc([N+](=O)[O-])cc(c23)C1=O — lower, -8.43%
- Cc1ccc(C2C3C(=O)N(c4ccccc4)C(=O)C3N3CCCN23)cc1 (stereo not shown) — lower, 12.9%
- COc1ccc(S(=O)(=O)N(C)CC(=O)NC2CCCC2)cc1OC — lower, 15.4%
- O=C(/C=C/c1cccc(F)c1)Nc1cc(S(=O)(=O)N2CCOCC2)ccc1N1CCCC1 — lower, 0.626%
- COC(=O)[C@@H]1C[C@@H]2CC[C@@H](O)C[C@@H]2N1Cc1ccccc1OS(=O)(=O)c1ccc(C)cc1 — lower, 6.43%
- Cc1ccc(C)c(NC(=O)CN(C)C(=O)c2ccc3[nH]c4c(c3c2)CC(C)CC4)c1 (stereo not shown) — higher, 16.2%
- Cc1ccc(-c2cc(C(=O)NCCCN3CCOCC3)no2)cc1 — lower, -0.32%
- CCN1CCc2c(sc(NC(=O)Nc3ccc(Cl)c(Cl)c3)c2C(N)=O)C1 — lower, -2.53%
- CCCN(C(=O)c1ccccc1N)c1c(C)n(C)n(-c2ccccc2)c1=O — lower, 13.6%
- Cc1ccc(OCC(=O)N(Cc2cccc(Cl)c2)C2CCS(=O)(=O)C2)cc1C (stereo not shown) — lower, 13%
- NC1=C(Br)C(=O)c2ccccc2C1=O — lower, 7.58%
- O=C(NCCCCCCOC1=NS(=O)(=O)c2ccccc21)C(=O)Nc1ccccc1 — higher, 16.7%
- CC(=O)N1CCN(c2ccc(NC(=O)c3ccccc3Br)cc2Cl)CC1 — lower, 1.44%
- COC(=O)c1cn(Cc2ccc(C(F)(F)F)cc2)cc(F)c1=O — lower, 12.7%
- C=CCn1c(SCCNC(C)=O)nc2cc(-c3ccccc3)sc2c1=O — higher, 15.8%
- CC(=O)N1c2ccc(S(=O)(=O)NCC3CCC(C(=O)NC4CCCCC4C)CC3)cc2CC1C (stereo not shown) — lower, 13.1%
- CCCSc1nc2cc(S(=O)(=O)N3CCOCC3)ccc2n1CC — lower, 10%
- CCOC(=O)c1cn(CC2CC2)c2cc(F)c(F)cc2c1=O — lower, 10.3%
- CCOc1ccc(-c2nn(-c3ccccc3)cc2/C=C2\SC(=S)N(C3CCS(=O)(=O)C3)C2=O)cc1 (stereo not shown) — lower, 9.76%
- CCOc1ccc(-n2c(-c3cccs3)nc3ccccc3c2=O)cc1 — higher, 17.9%
- Cc1ccc(CONC(=O)c2ccccc2)cc1 — the same, 15.5%
- O=c1[nH]cc(N2CCCCCC2)c(=O)[nH]1 — higher, 18.9%
- CC(C)NC(=O)CN1CCC(c2ccccc2)C(O)C1 (stereo not shown) — lower, 14.8%
- CCN(CC)CCN(C(=O)c1ccc(Br)s1)c1nc2cc3c(cc2s1)OCCO3.Cl — lower, 10.9%
- O=C(/C=C/c1ccc2c(c1)OCO2)c1ccc[nH]1 — lower, 8.18%
- CCCOc1ccc(N2C(=O)CC(N(CCc3ccc(OC)cc3)C(=O)c3ccccc3)C2=O)cc1 (stereo not shown) — lower, 13.5%
- CCN(CC)CCNS(=O)(=O)c1ccc2c3c(cccc13)C(=O)N2 — lower, 11.6%
- O=C(Cn1cnc2c(nnn2-c2ccccc2)c1=O)NCC1CCCO1 (stereo not shown) — higher, 16.8%
- COc1ccc(CN(C)CC(=O)Nc2sc3c(c2C#N)CCC3)cc1OC — lower, 8.26%
- CCc1cccc(CC)c1NC(=O)CN1CC(C)SC1=NC1CCCCC1 (stereo not shown) — higher, 15.6%
- CCCc1cc(=O)oc2cc(C)cc(OCc3nn[nH]n3)c12 — lower, 10.4%
- Cc1ccc(S(=O)(=O)Oc2ccccc2N2C(=O)C3CC=CCC3C2=O)cc1 (stereo not shown) — lower, 6.02%
- COc1ccc(C(=O)N2CCN(CCNC(=O)C(=O)Nc3ccc(F)cc3)CC2)cc1OC — lower, -10.8%
- CCOC(=O)c1ccccc1NC(=O)COc1coc(CN2CCc3ccccc32)cc1=O — lower, -4.62%
- COc1ccc(N2CCN(C(=O)c3cc4cc(Cl)ccc4[nH]3)CC2)cc1 — lower, 13.1%
- CCC(C)(C)NC(=S)Nc1ccccc1C — lower, 5.2%
- Cc1cc(C)n(CC(=O)N2CCCC(N3CCN(Cc4ccc5c(c4)OCO5)CC3)C2)n1 (stereo not shown) — lower, -5.41%
- O=C1OCc2ccc(NC(=O)c3ccccc3C(=O)O)cc21 — lower, 5.68%
- O=[N+]([O-])c1cc([N+](=O)[O-])c2c(=Nc3ccccc3)n(-c3ccccc3)n(O)c2c1 — lower, 5.58%
- CCCCCn1c(=O)c(C(=O)Nc2ccccc2Cl)c(O)c2ccccc21 — lower, 15.3%
- COc1ccc2cc(C(=O)C3CCCN(C(=O)c4csnn4)C3)ccc2c1 (stereo not shown) — lower, 3.88%
- CN(C)S(=O)(=O)c1ccc(C(=O)NCC[N+]2(C)CCCCCC2)o1.[I-] — lower, 14.1%
- CCCN(CCC)CCNC(=O)c1cc2c(-c3ccc(Cl)cc3)nn(C)c2s1 — lower, 6.94%
- CCSc1nnc(NC(=O)CSc2nccn2-c2cccc(C)c2)s1 — lower, 7.31%
- CN(Cc1ccccc1)C(=O)c1nc2ccccn2c1CN1CCC(N2CCOCC2)CC1 — lower, 3.72%
- CCOC(=O)c1ccc(Oc2nc(OC)cc(OC)n2)cc1 — lower, 7.81%
- Cc1cc(C)c2oc(C(=O)Nc3ccc(S(=O)(=O)Nc4nccc(C)n4)cc3)cc(=O)c2c1 — lower, 14.2%
- COC(=O)c1cc(S(=O)(=O)N2CCOCC2)ccc1Sc1ccccc1N — lower, -2.6%
- Cc1cc2oc(=O)c(CC(=O)NCCCN(C)C)c(C)c2c2occ(C(C)(C)C)c12 — lower, -49.9%
- O=C(CCC(=O)NNC(=O)c1ccc([N+](=O)[O-])cc1)NCc1ccccc1 — lower, 13.9%
- COc1ccc(C(=O)OCC(=O)NCC2CCCO2)cc1 (stereo not shown) — lower, 10.1%
- CN1C(=O)C(O)(CC(=O)c2ccccc2O)c2cc(Br)ccc21 (stereo not shown) — lower, 9.62%
- COC(=O)C1(C)CC1(c1ccccc1)c1ccccc1 (stereo not shown) — lower, -0.496%
- COc1ccc(Br)cc1C1CC(=O)N2CN(Cc3ccccc3)CSC2=C1C#N (stereo not shown) — lower, 9.97%
- O=C1CN(C(=O)COC(=O)c2ccc([N+](=O)[O-])o2)c2ccccc2N1 — lower, 7.52%
- CCn1cc(C(=O)Nc2cccc(C)c2)c(=O)c2ccc(C)nc21 — lower, 12.6%
- CSc1nnc(C(C)(C)C)c(=O)n1/N=C/c1ccc(C(C)C)cc1 — higher, 16.7%
- COCCn1c(=O)[nH]c2cc(C(=O)Nc3cc(OC)c(OC)c(OC)c3)ccc2c1=O — lower, 14.7%
- Cc1[nH]oc(=O)c1N=Nc1c(Cl)cccc1Cl — lower, 3.8%
- Cc1cc(C)cc(NC(=O)CCNC(=O)N2C[C@H]3C[C@@H](C2)c2cccc(=O)n2C3)c1 — lower, 11.7%
- COC(=O)c1cn(CC(=O)NC2CCCCCC2)c2ccccc12 — lower, 4.24%
- CCCSc1ccc([C@@H]2[C@H]3C(=O)N(CC)C(=O)[C@H]3[C@]3(C(=O)OC)CCCCN23)cc1.O=C(O)C(F)(F)F — lower, 13.6%
- N#Cc1c(-c2ccco2)cc(-c2ccc(F)cc2)nc1N — lower, 3.24%
- CC(C)CNC(=O)c1cccc(NC(=O)CSc2ccc(Cl)cc2)c1 — lower, 6.75%
- N#Cc1ccsc1NC(=O)CCc1ccccc1 — lower, 9.06%
- COc1ccc(CNC(=O)C/C(C)=N/NC(=O)COc2ccccc2)cc1 — lower, 11.4%
- COc1ccc(-c2cc(C(=O)Nc3sc4c(c3C#N)CCCC4)c3ccccc3n2)cc1OC — lower, 12.2%
- Cc1cc(C)nc(/N=C(\N)Nc2ccc3c(c2)OCCO3)n1 — lower, 13.3%
- COc1ccccc1NC(=O)COc1ccc(Br)cc1CNC1CCCC1 — lower, 0.559%
- Cc1cccc(NC(=O)c2cccc(OC(=S)N3CCOCC3)c2)c1C — lower, 10.7%
